# Test results as given in the supplement of paper PMC10126150.
# Values marked as one replicate rest on one cluster of the flow cell; about a third of the high ones do not repeat.
# System: ATP
# Assay: switch fluorescence ratio, 500 uM ATP over buffer (Cy3 cluster intensity, sum of 5 cycles each) (fold (ratio)); higher = stronger signal-on switching upon ATP binding; sequences stand for … in TCGTCGGCAGCGTCAGATGTGTATAAGAGACAGTTTTTTTTTTTTTTTTTTTTTTTTT…TC
# Conditions: aptamer strand: ATP DNA aptamer (quencher-CACCTGGGGGAGTATTGCGGAGGAAGG + anchor), 100 nM annealed; ATP concentration: 500 uM; one replicate
# Summary of the method: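 Imaging in selection buffer was followed by imaging after 15 min with 500 uM ATP at 22 °C, for Cy3-labelled switching-strand clusters annealed to 100 nM quencher-labelled ATP aptamer on a modified Illumina MiSeq flow-cell. Five of these buffer/ATP cycles ran, separated by NaOH stripping and re-annealing. The fluorescence ratio per cluster is summed target-cycle over summed buffer-cycle Cy3 intensity, averaged per switch-domain sequence; clusters outside 100-1000 RFU were removed.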
# 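Further: ATP exposure 15 min at 22 °C before imaging.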
row,Sequence,switch fluorescence ratio
1,TACTCAAAGT,1.02
2,TACTCAACGC,1.23
3,TACTCGCCG,1.12
4,TACTCGGTGC,1.03
5,TACTCTGGTT,0.978
6,TACTCTTTCA,1.01
7,TACTGAACCC,1.15
8,TACTGATTAT,1.2
9,TACTGCCAT,1.11
10,TACTGCCGGG,1.05
11,TACTGGGAAC,1.02
12,TACTGGTGCC,1.07
13,TACTGTCTAG,0.968
14,TACTGTGGCT,1.07
15,TACTTCCACG,1.4
16,TACTTTCACG,1.28
17,TACTTTCCTA,1.02
18,TACTTTGTTC,1.05
19,TAGAAGAACT,1
20,TAGAAGAGCG,1.02
21,TAGAAGGCCA,1.02
22,TAGAAGGCGT,0.967
23,TAGAATGCAC,1.05
24,TAGAATGGGG,0.98
25,TAGACAGGAT,1.01
26,TAGACCGGAT,1.02

row,Sequence,switch fluorescence ratio
1,TAGACCTTA,1.06
2,TAGACGAATA,1.35
3,TAGACGTGCT,1.11
4,TAGACTCATA,0.983
5,TAGACTTCCT,0.985
6,TAGAGCACCG,0.935
7,TAGAGCCGAT,1.01
8,TAGAGCGTAC,1.13
9,TAGAGGCGCG,0.985
10,TAGAGTAAGG,1.01
11,TAGAGTTTGA,1.01
12,TAGATAACAC,1.03
13,TAGATACTGT,1.01
14,TAGATAGGA,0.993
15,TAGATGCGCT,0.928
16,TAGATGCGTT,0.994
17,TAGATGGTCC,1.04
18,TAGATGTGCT,0.968
19,TAGATTCGGG,1.02
20,TAGATTTACT,1.03
21,TAGATTTG,0.98
22,TAGATTTGCG,0.982
23,TAGATTTTGG,0.974
24,TAGCAAAACG,1.06
25,TAGCAAAGGA,1
26,TAGCAACCTC,1.56

row,Sequence,switch fluorescence ratio
1,TAGCAACTTT,1.01
2,TAGCAATTCG,1.84
3,TAGCACTGAC,1.45
4,TAGCATTGTA,0.988
5,TAGCCAGCCA,0.981
6,TAGCCCGAAG,1.03
7,TAGCCGAGAG,0.999
8,TAGCCTGGGT,0.999
9,TAGCGATAGC,0.981
10,TAGCGATTCA,0.978
11,TAGCGCGCAA,1.21
12,TAGCGGACAC,1.01
13,TAGCGGGGGT,0.939
14,TAGCGTACTC,2.17
15,TAGCGTAGCC,0.961
16,TAGCGTCTGC,1.11
17,TAGCTAAAGA,1.03
18,TAGCTATACG,1.48
19,TAGCTGCACG,1.02
20,TAGCTGCGCG,0.992
21,TAGCTGCTGT,1.02
22,TAGCTGGGCC,1.01
23,TAGCTTATCC,1.06
24,TAGCTTCGAG,1.04
25,TAGCTTCTCA,1.03
26,TAGCTTGGG,1.01

row,Sequence,switch fluorescence ratio
1,TAGGAAAGAT,1.04
2,TAGGAATAGG,1.02
3,TAGGAATCCT,1.07
4,TAGGACTGGT,0.997
5,TAGGAGACGC,1.04
6,TAGGAGAGAG,0.975
7,TAGGAGCACC,1.03
8,TAGGAGTGGC,1.03
9,TAGGCAGCTG,1.02
10,TAGGCATGGT,0.999
11,TAGGCCAAAG,0.963
12,TAGGCCATCC,1.05
13,TAGGCCATTT,0.999
14,TAGGCGCCAG,0.972
15,TAGGCGCCTC,1.04
16,TAGGCGGCTG,0.987
17,TAGGCGTTAA,0.963
18,TAGGCTTGTA,1
19,TAGGGAGGG,0.982
20,TAGGGCGGAT,1.04
21,TAGGGGCGGA,1.03
22,TAGGGGTGAC,1.02
23,TAGGGTCCTG,1.04
